Test results: the supplement of paper PMC4967469
IC50 is the fitted dose that halves viability relative to control wells, and lower means more sensitive; a limit (>, <) means that the fit lies beyond the doses tested. AUC sums up the same curve from the lowest dose to the 256-fold higher top dose; the more sensitive the line, the further below 1. For some of these results: A top dose marked as inferred is not printed in the source and was worked back from the curve model.

What was measured:
Experiment in all cases: Viability of human cancer cell lines after 72 h of drug (GDSC screen)
Bosutinib = compound: COc1cc(Nc2c(C#N)cnc3cc(OCCCN4CCN(C)CC4)c(OC)cc23)c(Cl)cc1Cl [Bosutinib]; conditions: top dose 2 µM
Description: (§1)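 Human cancer cell lines in 384-well plates, medium with 10% serum, drug for 72 h over a 256-fold dose range (nine 2-fold or five 4-fold steps up to the top dose). Adherent lines were fixed and stained with the nucleic acid dye Syto60, suspension lines read with resazurin; signal relative to control wells, capped at 0 and 100%. One two-parameter sigmoid per drug and line, fitted in a mixed model over all curves with the slope shared within a line.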

NVP-BHG712 = compound: Cc1ccc(C(=O)Nc2cccc(C(F)(F)F)c2)cc1Nc1nc(-c2cccnc2)nc2c1cnn2C [NVP-BHG712]; conditions: top dose 10.24 µM; top dose inferred
Description: as §1

IOX2 = compound: O=C(O)CNC(=O)c1c(O)c2ccccc2n(Cc2ccccc2)c1=O [IOX2]; conditions: top dose 0.1 µM; top dose inferred
Description: as §1

Cell Line	AUC (Bosutinib)	IC50 (Bosutinib)	AUC (NVP-BHG712)	IC50 (NVP-BHG712)	AUC (IOX2)	IC50 (IOX2)
A2780 (ovary, semi-adherent)	0.967	> 2000 nM	0.815	5900 nM	0.983	> 100 nM
MOLM-16 (acute myeloid leukaemia, suspension)	0.834	1090 nM	–	–	0.988	> 100 nM
MOLT-16 (T-cell lymphoblastic leukaemia, suspension)	0.725	465 nM	–	–	0.991	> 100 nM
Jurkat (T-cell leukaemia, suspension)	0.976	> 2000 nM	–	–	0.992	> 100 nM
MOLT-4 (lymphoblastic leukaemia, suspension)	0.831	956 nM	0.832	4920 nM	0.991	> 100 nM
KARPAS-1106P (B-cell lymphoma, suspension)	0.893	1650 nM	–	–	0.993	> 100 nM
EW-22 (Ewing sarcoma, adherent)	0.955	> 2000 nM	–	–	0.987	> 100 nM
HT-29 (large intestine, adherent)	0.939	> 2000 nM	0.772	3950 nM	0.986	> 100 nM
NCI-H835 (lung carcinoid, suspension)	0.99	> 2000 nM	–	–	0.99	> 100 nM
SK-MEL-5 (melanoma, adherent)	0.888	> 2000 nM	0.983	> 10200 nM	0.981	> 100 nM
FLO-1 (oesophagus, adherent)	0.888	> 2000 nM	0.919	> 10200 nM	0.884	> 100 nM
SW1116 (large intestine, adherent)	–	–	0.986	> 10200 nM	0.984	> 100 nM
THP-1 (acute myeloid leukaemia, suspension)	–	–	0.821	5170 nM	0.99	> 100 nM
VMRC-LCD (lung adenocarcinoma, adherent)	0.99	> 2000 nM	–	–	0.992	> 100 nM
COR-L311 (small cell lung carcinoma, suspension)	–	–	0.873	> 10200 nM	–	–
NCI-H508 (large intestine, semi-adherent)	0.894	> 2000 nM	–	–	0.972	> 100 nM
MHH-CALL-2 (B-cell leukaemia, suspension)	0.993	> 2000 nM	–	–	0.994	> 100 nM
CL-40 (large intestine, adherent)	0.898	> 2000 nM	–	–	0.969	> 100 nM
HCT-116 (large intestine, adherent)	–	–	0.722	2620 nM	0.986	> 100 nM
NCI-H1341 (small cell lung carcinoma, suspension)	0.992	> 2000 nM	–	–	0.991	> 100 nM
RCH-ACV (B-cell leukaemia, suspension)	0.834	997 nM	–	–	0.991	> 100 nM
KNS-62 (lung squamous cell carcinoma, adherent)	0.933	> 2000 nM	–	–	0.975	> 100 nM
SN12C (kidney, adherent)	–	–	0.986	> 10200 nM	0.983	> 100 nM
NCI-H2066 (small cell lung carcinoma, adherent)	–	–	–	–	0.944	> 100 nM

Cell Line	AUC (Bosutinib)	IC50 (Bosutinib)	AUC (NVP-BHG712)	IC50 (NVP-BHG712)	AUC (IOX2)	IC50 (IOX2)
JHOS-4 (ovary, adherent)	0.978	> 2000 nM	–	–	–	–
YMB-1-E (breast, adherent)	–	–	0.948	> 10200 nM	–	–
SUP-B8 (B-cell leukaemia, suspension)	0.81	1040 nM	–	–	0.988	> 100 nM
PC-3 (prostate, adherent)	–	–	0.979	> 10200 nM	0.981	> 100 nM
OCI-LY7 (B-cell lymphoma, suspension)	0.629	256 nM	–	–	0.997	> 100 nM
MM1S (myeloma, suspension)	0.927	> 2000 nM	–	–	–	–
COR-L32 (small cell lung carcinoma, suspension)	–	–	–	–	0.954	> 100 nM
SK-GT-2 (stomach, adherent)	0.812	1150 nM	–	–	0.974	> 100 nM
MKN7 (stomach, adherent)	0.948	> 2000 nM	–	–	0.982	> 100 nM
CL-34 (large intestine, adherent)	0.977	> 2000 nM	–	–	0.984	> 100 nM
COR-L303 (small cell lung carcinoma, suspension)	–	–	0.847	7180 nM	–	–
H2810 (mesothelioma, adherent)	–	–	–	–	0.935	> 100 nM
NCI-N87 (stomach, adherent)	0.887	> 2000 nM	–	–	0.955	> 100 nM
ZR-75-30 (breast, adherent)	0.936	> 2000 nM	–	–	0.969	> 100 nM
RH-18 (rhabdomyosarcoma, adherent)	0.985	> 2000 nM	–	–	0.983	> 100 nM
SNU-175 (large intestine, suspension)	–	–	0.875	9030 nM	–	–
786-0 (kidney, adherent)	–	–	0.928	> 10200 nM	0.987	> 100 nM
NCI-H146 (small cell lung carcinoma, suspension)	0.995	> 2000 nM	–	–	0.995	> 100 nM
KATOIII (stomach, semi-adherent)	0.895	> 2000 nM	–	–	0.989	> 100 nM
MEL-HO (melanoma, adherent)	0.915	> 2000 nM	–	–	0.974	> 100 nM
SK-MEL-31 (melanoma, adherent)	0.985	> 2000 nM	–	–	0.976	> 100 nM
NCI-H1105 (small cell lung carcinoma, suspension)	0.993	> 2000 nM	–	–	0.993	> 100 nM
A549 (lung adenocarcinoma, adherent)	–	–	–	–	0.98	> 100 nM
